Hit rate of the full screen: of about 48,000 compounds, about 1,200 (2.5%) were called active. About 2% were inconclusive and are not listed.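 Rule for the calls: active = activation of at least 60% and not above a set upper limit (about 1 call in 100 departs from these limits); inconclusive = activation of 40% to 60%, or above that upper limit; inactive = activation under 40%.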 The list shows a part of the results.

UniProt O75388, sequence (O75388 whole entry, looked up, the tested form may be a part): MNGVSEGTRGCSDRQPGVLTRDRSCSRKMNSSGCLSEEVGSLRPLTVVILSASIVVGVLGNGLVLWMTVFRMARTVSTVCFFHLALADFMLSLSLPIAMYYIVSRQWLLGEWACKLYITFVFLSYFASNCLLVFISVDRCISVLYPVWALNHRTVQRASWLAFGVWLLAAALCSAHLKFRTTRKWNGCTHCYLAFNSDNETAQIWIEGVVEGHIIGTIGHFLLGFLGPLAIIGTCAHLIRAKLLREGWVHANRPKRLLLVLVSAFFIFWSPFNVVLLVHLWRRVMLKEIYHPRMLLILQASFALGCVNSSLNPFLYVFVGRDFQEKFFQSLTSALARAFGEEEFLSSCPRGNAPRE

For this assay, the target named is Probable G-protein coupled receptor 32 (Homo sapiens) (UniProt O75388). The experiment in a line: qHTS for Agonists of Human Resolvin D1 Receptor DRV1. Note: 0% is about no effect. The settings on record: CHO-K1 GPR32 beta-arrestin PathHunter luminescence, 90 min; at 76.9 µM; active compounds read high; zero percent set by DMSO-only wells. The method, boiled down:
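Agonism was scored by beta-Gal fragment complementation (chemiluminescent read, 1 h detection at ambient temperature) reporting beta-arrestin binding to GPR32 in engineered CHO-K1 cells. Compound treatment lasted 90 min at 37 C, normalized to a DMSO basal control.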
Consider `O=C(CCCc1ccccc1)NC1CC(=O)N(c2cccc(F)c2)C1` (stereo not given), for which the activation was inactive: -11.8%. As for `CCc1ccc(NC(=O)CSc2nc3c(c(=O)[nH]2)CN(Cc2ccc4c(c2)OCO4)CC3)cc1`, the figure is inactive: 20.8%; as for `CCOC(=O)c1cc2c(=O)n3ccccc3nc2n(C)c1=NC(=O)c1c(-c2c(F)cccc2Cl)noc1C`, inactive: -6.58%; as for `O=C(Nc1ccc(Br)c(Cl)c1)c1ccc(C(=O)Nc2ccc(Br)c(Cl)c2)cc1`, inactive: -4.13%. For `CCCCCn1c(CCCNC(=O)c2ccc(Cl)cc2)nc2ccccc21`, the activation is inactive: 1.52%.

`COc1ccccc1CNC(=O)C(=O)NCC(c1ccco1)S(=O)(=O)c1ccc(C)cc1` (stereo not given): the activation is inactive: -13.8%.

With `NC(N)=NN=C(/C=C/c1ccc([N+](=O)[O-])o1)/C=C/c1ccc([N+](=O)[O-])o1`, the activation was inactive: -26.4%. `COC(=O)C1=C(C)N(C(C)C)C(=O)C1(NC(=O)c1ccccc1OC)C(F)(F)F` (stereo not given): the activation was inactive: -10.7%. In the case of `O=C1NC(=O)/C(=C/c2ccc3nccnc3c2)S1` it was inactive: -1.82%.

Turning to `COc1ccc(-c2nc(C(=O)Nc3cccc(C(C)=O)c3)nn2-c2ccccc2Cl)cc1`, the activation is inactive: -3.85%. For `COc1ccc(CNC(=O)CCc2nnc3n(C)c(=O)c4sccc4n23)cc1`, the activation is inactive: -3.51%. For the compound `COCCCNC(=O)c1cc2c(-c3cccc(OC)c3)nn(C)c2s1`, the activation is inactive: -4.5%. Regarding `O=C(CSc1nccn1Cc1ccc(Cl)cc1)Nc1nc2ccccc2s1`, the activation is inactive: 0.0791%. As to `CCC(=O)N1CCc2cc(Br)cc(S(=O)(=O)Nc3ccccc3C(=O)OC)c21`, the activation was inactive: -10.5%. In the case of `COc1ccc(N2CCN(C(=O)c3cc4c(=O)n(Cc5ccco5)ccc4nc3C)CC2)cc1` it was inactive: -15.2%; in that of `O=C(NCc1ccccc1Cl)c1ccccc1NC(=O)c1nsc2ccccc12`, inactive: -2.55%; in that of `COc1cc(OC)c(NC(=O)c2cnn(-c3ccccc3)c2-n2cccc2)cc1Cl`, inactive: -8.21%. With `CCOc1cc(-c2nc(-c3ccc(-c4ccccc4)nc3OCC)no2)cc(OCC)c1OCC`, the activation is inactive: -12.9%. As for `CCc1ccc(NC(=O)c2cc(S(=O)(=O)N3CCCC(C)C3)cn2C)cc1` (stereo not given), the figure is inactive: 22.2%; as for `Cc1ccccc1CCNC(=O)c1ccc(Cn2c(=O)c3cccn3c3cccnc32)cc1`, inactive: -13.1%. For `CCOC(=O)[C@H](CCc1ccccc1)N[C@H]1CS[C@H](c2cccs2)CN(CC(=O)O)C1=O`, the activation is inactive: -9.07%.

In the case of `CCC(=O)N1CCc2cc(CNC(=O)c3cccc(N(C)C)c3)ccc21`, the activation was inactive: -32.4%. Take `COc1ccc(NC(=O)C2CCCN(c3ncnc4onc(C)c34)C2)cc1OC` (stereo not given): the activation was inactive: 17.8%. As to `CCC(CN)=C(c1ccccc1)c1ccccc1`, the activation was inactive: 6.91%. In the case of `Cc1ccccc1NC(=O)C1CCN(S(=O)(=O)c2c(C)noc2/C=C/c2ccco2)CC1` it was inactive: -22.6%; in that of `COc1ccc(C(=O)NCc2ccc3c(c2)CCN3C(C)=O)c(OC)c1`, inactive: -0.363%. On to `CCc1ccccc1NC(=O)Cn1nc(CC)n2c(cc3sccc32)c1=O`, for which the activation was inactive: -3.33%. In the case of `CCC(=O)OC1=C(C(C)=O)N(Cc2ccccc2)S(=O)(=O)c2ccccc21` it was inactive: -16.4%; in that of `Cc1ccc(Cn2c(SCc3ccc(C(=O)N4CCCCC4)cc3)nc3ccncc32)cc1`, inactive: 7.54%; in that of `CCc1ccccc1N1C(=O)CN(S(=O)(=O)CC)CC1(C)C(=O)NC1CCCCC1` (stereo not given), inactive: -7.6%.

In the case of `NC(=O)c1ccc([N+](=O)[O-])cc1Cl`, the activation was inactive: -8.38%. As for `Cc1ccc(-c2c3c(=O)n(C)c(=O)n(C)c3c3n2-c2ccccc2NC3c2ccc(C)cc2O)cc1` (stereo not given), the activation was inactive: -0.68%. Regarding `COc1ccc(-c2cc(C(=O)N3CCCCC3C)no2)cc1OC` (stereo not given), the activation is inactive: -24.8%. As for `Cc1ccc(Cl)cc1N1CCN(S(=O)(=O)c2cn(C)c(C)n2)CC1`, the figure is inactive: 0.18%; as for `O=C(COc1ccccc1)Nc1nnc(S(=O)(=O)Nc2ccccc2)s1`, inactive: 8.67%; as for `COc1ccc(C(=O)c2sc3nc4c(c(C(F)(F)F)c3c2N)CN(C(C)=O)CC4)cc1OC`, inactive: 22.4%. With `CCOc1ccccc1C1C(C(=O)Nc2ccccc2)=C(C)Nc2nc(SCC(=O)c3ccc(C)cc3)nn21` (stereo not given), the activation was inactive: -15.7%. In the case of `CC1CCCCN1CCCNC(=O)CN1C(=O)c2cccnc2Oc2ccc(Cl)cc21` (stereo not given) it was inactive: 0.555%; in that of `O=C(c1ccc(Cl)cc1)N1CCN(CCc2ccncc2)CC1`, inactive: -9.44%.

Regarding `CCOc1ccccc1NC(=O)Nc1nnc(N2CCCC(C)C2)s1` (stereo not given), the activation is inactive: -3.49%. In the case of `O=C1OCCN1/N=C/c1ccc([N+](=O)[O-])o1` it was inactive: 20.3%.

`Cc1ccc(-c2nnc(Nc3cccc(Cl)c3)c3ccccc23)cc1S(=O)(=O)N1CCN(C)CC1`: the activation was inactive: -9.19%. As for `CCN(Cc1ccccc1)c1ncnc2c1cnn2-c1ccc(F)cc1`, the figure is inactive: 5.72%. As for `O=C(Nc1ccc(Oc2ccc(Cl)cc2)c(Cl)c1)c1cc(I)cc(I)c1O`, the figure is inactive: -5.44%; as for `COc1ccc(C(=O)NCCn2cc(SCc3ccc(C(F)(F)F)cc3)c3ccccc32)cc1OC`, inactive: 7.39%. In the case of `Cc1cccc(NC(=O)CSC2=Nc3ccccc3C3=NC(CC(=O)NCc4cccs4)C(=O)N23)c1` (stereo not given) it was inactive: -25.1%; in that of `COc1cccc(CNC(=O)C2CCCN(S(=O)(=O)N(C)c3ccc(F)cc3)C2)c1OC` (stereo not given), inactive: 6.31%.

Take `COc1ccc(CNC(=O)CCCn2nc(C)n3c(cc4sccc43)c2=O)cc1`: the activation was inactive: 2.74%. In the case of `COc1ccccc1/C=C/c1nc(C#N)c(NC2CCCCC2)o1` it was inactive: -13.1%; in that of `COCCn1c(C)cc(O)c(C(c2ccccc2OC)N2CCN(c3ccccc3)CC2)c1=O` (stereo not given), inactive: -8.9%; in that of `CCOC(=O)c1cnc2ccc(Br)cc2c1NCCN1CCOCC1`, inactive: 22.2%. Turning to `Cc1ccc(NC(=O)CN2C=NS(=O)(=O)c3ccccc32)cc1`, the activation is inactive: 28.3%. Take `CCOC(=O)COc1ccc(CC)cc1C(=O)c1ccn2nc(-c3ccc(F)cc3)cc2n1`: the activation is inactive: -22.8%. Consider `COc1ccc(-c2noc(CC(=O)N(C)c3cccc(C)c3)n2)cc1`, for which the activation is inactive: -16.4%. Consider `COc1ccc(C(=O)c2cn(Cc3ccccc3F)c3cc4c(cc3c2=O)OCCO4)cc1OC`, for which the activation was inactive: -10.8%. As for `O=C(Nc1ccc2c(c1)CCCN2C(=O)c1cccs1)c1ccc(F)c(F)c1`, the figure is inactive: 10.9%; as for `COc1ccc(NC(=O)CSc2oc(-c3cccs3)nc2S(=O)(=O)c2ccccc2)c(OC)c1`, inactive: 12.2%; as for `Cc1ccc(Cl)cc1N1CCN(C(=O)CCS(=O)(=O)c2cc(Br)cc3c2N(C(=O)C2CC2)CC3)CC1`, inactive: -16.8%.

For the compound `Cc1ccc(N2CC(NC(=O)c3ccccc3C(F)(F)F)CC2=O)cc1C` (stereo not given), the activation was inactive: -2.07%. In the case of `COc1ccc(Cl)cc1S(=O)(=O)Nc1ccc2[nH]c(=O)[nH]c2c1` it was inactive: -9.44%; in that of `Clc1ccc2c(c1)-n1cc(-c3ccccc3)nc1CO2`, inactive: 14.5%. In the case of `CCc1ccc(S(=O)(=O)c2cn(Cc3ccccc3)c3cc(N4CCCC4)c(F)cc3c2=O)cc1` it was inactive: 3.4%. As for `O=C(Nc1ccc(C(=O)OCc2cc(=O)n3nc(C4CC4)sc3n2)cc1)c1ccccc1`, the figure is inactive: -6.18%; as for `Cc1ccc(CCNC(=O)Cn2c(-c3cccs3)cc3ccccc32)cc1`, inactive: -9.83%. Take `Cc1cccc(CNC(=O)c2cc3cc(S(=O)(=O)N4CCCCC4)ccc3n2C)c1`: the activation was inactive: -13.5%. For `COc1cc(NC(=O)CCN2CCN(CCO)CC2)cc(OC)c1`, the activation was inactive: 5.4%.

For the compound `COc1cc(CN(C(=O)COc2ccc(F)cc2)c2ccccn2)cc(OC)c1OC`, the activation was inactive: -10.4%.

With `CCOc1ccc(OCC(=O)Nc2ccc(S(=O)(=O)Nc3cc(C)on3)cc2)cc1`, the activation was inactive: 1.06%. In the case of `Cc1ccc(C)c(N2CCN(C(=O)c3cc(C)nc4c3c(C)nn4-c3ccccc3)CC2)c1` it was inactive: -23.1%; in that of `CCCc1cc(=O)n2[nH]c(NCc3c(F)cccc3Cl)nc2n1`, inactive: 5.34%.

In the case of `CCc1nn(CC(=O)NCCc2ccc(SC)cc2)c(=O)c2cc3sccc3n12`, the activation was inactive: -7.85%.

Turning to `Cc1nc2cc(-c3cccc(F)c3)nn2c(C)c1CCC(=O)NCCc1ccccc1`, the activation was inactive: 29.6%.

Take `COc1ccc(N2CCN(S(=O)(=O)c3ccc4c(c3)C(C(C)C)C(=O)N4)CC2)cc1` (stereo not given): the activation is inactive: 5.94%. As for `CCOC(=O)COc1ccc(-c2nnn(CC(=O)Nc3ccccc3)n2)cc1`, the figure is inactive: -4.25%; as for `Cc1ccc(NC(=O)c2ccc(=O)n(CC(=O)Nc3ccccc3)n2)cc1`, inactive: -5.28%.

On to `Cc1sc2c(c1C)c(=O)n(CCc1ccccc1)c(=O)n2Cc1ccc(C(C)(C)C)cc1`, for which the activation is inactive: 12.4%.

With `Cc1ccc(C)c(NC(=O)C2CCN(S(=O)(=O)c3c(C)noc3/C=C/c3cccs3)CC2)c1`, the activation is inactive: -22.2%. As for `Cn1c(/C(C#N)=C/c2ccccc2Br)nc2ccccc21`, the figure is inactive: -34.1%; as for `CCn1c(CNC(=O)c2ccc(OC)cc2)nnc1SCC(=O)Nc1cc(C)ccc1C`, inactive: 6.04%; as for `CCc1c(C)c2ccc(O)c(CN3CCN(c4ccc(F)cc4)CC3)c2oc1=O`, inactive: 0.573%. As for `COc1ccccc1C(=O)NCc1nc2cccnc2n1Cc1ccc(F)cc1`, the figure is inactive: -16.9%; as for `CCc1cccc(NS(=O)(=O)c2ccc3c(c2)CC(C)N3C(=O)C2CC2)c1` (stereo not given), inactive: 12.8%. As for `COc1ccc(S(=O)(=O)N2Cc3ccccc3CC2C(=O)Nc2cc(Cl)ccc2Cl)cc1` (stereo not given), the figure is inactive: -0.616%; as for `COc1ccc(Cl)cc1NC(=O)CSc1nccn1-c1ccc(Cl)cc1`, inactive: -7.59%. In the case of `CCOCN(C(=O)Cn1c(COC)nc2ccccc21)c1c(C)cccc1CC`, the activation is inactive: -1.35%.

For the origin of these results see PubChem BioAssay AID1346428 (National Center for Advancing Translational Sciences (NCATS), 2018).
